Measurements taken from PubChem BioAssay AID485294 (National Center for Advancing Translational Sciences (NCATS), 2010).
The campaign covered roughly 370,000 compounds. About 150 (0.041%) were called active. The inconclusive results got no clear call from the source; some entries with a clear call stand among them for comparison. The call rests on the fitted dose curve; in most records, active means well fitted inhibition curve with a large enough effect; inconclusive means small, poorly fitted or top-dose-only effect; inactive means flat fitted curve, though single readings scatter. No potency is given beside an inconclusive call; the fits are too rough.
Further: nearly all actives have a fitted effect of over 25% in size.
Potency means the concentration at half of the fitted maximal effect; tags describe the fitted curve by direction and shape.
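Wherever activity change, negative = inhibition is given: 0% = no-compound wells and -100% = no-enzyme wells.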

What follows are molecules tested against Beta-lactamase (Escherichia coli (strain K12)) (UniProt P00811) (assay: qHTS Inhibitors of AmpC Beta-Lactamase (assay with detergent)). Details: AmpC hydrolysis of nitrocefin, absorbance 480 nm, 0.01% Triton; activity change, negative = inhibition: at 114 µM (top of the series).
Sequence of UniProt P00811 (P00811 whole entry, looked up): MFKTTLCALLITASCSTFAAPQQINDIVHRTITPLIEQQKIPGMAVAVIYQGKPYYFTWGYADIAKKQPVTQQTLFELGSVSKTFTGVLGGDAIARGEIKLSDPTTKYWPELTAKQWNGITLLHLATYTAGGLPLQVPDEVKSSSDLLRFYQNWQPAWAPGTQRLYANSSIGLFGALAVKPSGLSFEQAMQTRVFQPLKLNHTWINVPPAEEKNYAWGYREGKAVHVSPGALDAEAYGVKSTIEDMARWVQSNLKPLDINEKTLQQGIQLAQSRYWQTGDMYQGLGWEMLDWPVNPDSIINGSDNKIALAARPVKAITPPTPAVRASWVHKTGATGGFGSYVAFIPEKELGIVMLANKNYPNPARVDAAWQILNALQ
Method in brief: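 AmpC (5.3 nM in the dispensed reagent) in 20 mM phosphate pH 7.0 with 0.01% (detergent screen) or 0.0001% Triton X-100 was preincubated with compounds for 15 min at room temperature. Nitrocefin was then added from an 800 uM solution, and hydrolysis was followed at 480 nm.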
In the case of `Cc1cc(NC(=O)CSCC(=O)OCc2nnc(-c3ccccc3)o2)no1`, the Potency is reported as inconclusive [inhibitor, partial curve, poor fit].
In the case of `COC(=O)c1cccc(NC(=O)c2cc3ccccc3o2)c1`, the “activity change, negative = inhibition” value is reported as inactive: 0.625%.
In the case of `O=C1NC2(CCCCCC2)C(=O)N1Cc1ccc(F)cc1Cl`, the “activity change, negative = inhibition” value is reported as inactive: -1.97%.
In the case of `O=C(O)CCc1ccc(-c2ccc(Cl)cc2)o1`, the “activity change, negative = inhibition” value is reported as inactive: -4.6%.
With `O=C(CCOc1ccccc1)Nc1nnc(-c2ccc3c(c2)OCCO3)o1` the “activity change, negative = inhibition” value was inactive: -1.12%.
In the case of `CCc1nc(SCC(=O)N2CCN(C(=O)c3ccco3)CC2)c2c3c(sc2n1)CCCC3`, the Potency is reported as inconclusive [inhibitor, partial curve, poor fit].
With `Clc1ccccc1-c1nc2nc3ccccc3nc2n1-c1ccc2c(c1)OCO2` the “activity change, negative = inhibition” value was inactive: -4.38%.
For `Cc1ccc(NS(=O)(=O)c2ccc(C(=O)NNC(=O)c3ccccc3O)cc2)cc1`, the Potency was inconclusive [inhibitor, partial curve, poor fit].
With `COc1ccc2c(c1)c(=O)cc(-c1ccccc1)n2C` the Potency was inconclusive [inhibitor, single point].
For `Cc1ccc(C2NC(=O)NC(O)(C(F)(F)F)C2C(=O)c2ccccc2)o1` (stereo not drawn), the Potency was inconclusive [inhibitor, full curve, poor fit].
With `COc1cccc(N2C(N)=NC(N)=NC2(C)C)c1` the “activity change, negative = inhibition” value was inactive: -9.57%.
In the case of `O=C(Nc1cnn(Cc2ccc(F)cc2)c1)c1cc(-c2cccs2)on1`, the Potency is reported as inconclusive [inhibitor, partial curve, poor fit].
`O=C1CN(C(=O)CSc2nc3ccccc3c(=O)n2Cc2ccc(F)cc2)c2ccccc2N1` was tested, and the “activity change, negative = inhibition” value was inactive: 3.67%.
In the case of `Cc1ccc(C2(c3ccc(C)cc3)CC2C(=O)NC(C)C)cc1` (stereo not drawn), the “activity change, negative = inhibition” value is reported as inactive: 2.75%.
`CCC(C)(C)C1CCC(=NNS(=O)(=O)c2ccc(C)c([N+](=O)[O-])c2)CC1` (stereo not drawn) was tested, and the Potency was inconclusive [inhibitor, full curve, poor fit].
With `CCCCCCNC(=O)N[C@H](C(=O)NCCC[C@H]1CN2C(=NC[C@H]2C)N1CCC(c1ccccc1)c1ccccc1)C(C)O` (stereo partly drawn) the “activity change, negative = inhibition” value was inactive: 0.24%.
In the case of `COc1ccc(N2CCN(S(=O)(=O)c3cnc[nH]3)CC2)cc1`, the “activity change, negative = inhibition” value is reported as inactive: -7.63%.
With `Cc1sc(NC(=O)c2cc3ccccc3oc2=O)c(C(=O)OC(C)C)c1-c1ccccc1` the “activity change, negative = inhibition” value was inactive: -11.3%.
With `Cc1ccc(NC(=O)Nc2cn(CC(C)C)c(=O)c3ccccc23)cc1N(C)C` the “activity change, negative = inhibition” value was inactive: -4.16%.
In the case of `CCC1=NN2C(=N)/C(=C\c3cccn3-c3ccc(C)cc3C)C(=O)N=C2S1`, the Potency is reported as inconclusive [inhibitor, partial curve, poor fit].
`CCOC(=O)c1ccc2c(c1)nc(SCC(=O)c1ccco1)n2CC` was tested, and the “activity change, negative = inhibition” value was inactive: -16.5%.
In the case of `Cc1nc(-c2noc(-c3cccc(Cl)c3)n2)c(C(F)(F)F)o1`, the “activity change, negative = inhibition” value is reported as inactive: 5.2%.
With `Cc1ccc(C)c(OCC(=O)Nc2ccc(S(=O)(=O)Nc3ccccn3)cc2)c1` the Potency was inconclusive [inhibitor, partial curve, poor fit].
With `NC(=O)CC(NC(=O)c1cccc(Br)c1)c1ccc(NC2CCCCCCC2)c([N+](=O)[O-])c1` (stereo not drawn) the Potency was inconclusive [inhibitor, full curve, poor fit].
`O=S(=O)(CCN1CCN(c2ccccc2O)CC1)c1cc(Cl)ccc1Cl` was tested, and the Potency was inconclusive [inhibitor, full curve, poor fit].
In the case of `O=C(NCc1ccncc1)C1CCN(S(=O)(=O)c2ccc(Cl)c(C(F)(F)F)c2)CC1`, the Potency is reported as inconclusive [inhibitor, full curve, poor fit].
For `CC(=O)Nc1cc(C(=O)OCC(=O)c2ccc(Cl)cc2Cl)ccc1C`, the Potency was inconclusive [inhibitor, partial curve, poor fit].
With `COCCNC(=O)c1cccc(OC2CCN(Cc3ccccc3C)CC2)c1` the “activity change, negative = inhibition” value was inactive: 1.51%.
For `N/C(=N\OC(=O)COc1ccc(Cl)cc1Br)c1ccncc1`, the “activity change, negative = inhibition” value was inactive: 4.32%.
With `CCOc1ccc(S(=O)(=O)N(C)C2CCCCC2)cc1` the “activity change, negative = inhibition” value was inactive: 1.83%.
For `COc1ccc(Cn2c(CCC(=O)NCc3cccc(Cl)c3)nc3cccnc32)cc1`, the Potency was inconclusive [inhibitor, single point].
In the case of `N#C/C(C(=O)c1ccccc1)=C1/CCCCCN1`, the Potency is reported as inconclusive [inhibitor, partial curve, poor fit].
`COc1ccc(S(=O)(=O)N2CCOCC2)cc1C(=O)Nc1nc2ccccc2s1` was tested, and the Potency was inconclusive [inhibitor, single point].
With `CCOC(=O)c1cc(S(=O)(=O)Nc2ccc(C)cc2Cl)[nH]n1` the “activity change, negative = inhibition” value was inactive: 21%.
`O=C(COC(=O)c1ccc(S(=O)(=O)N2CCCC2)cc1)NCc1ccccc1` was tested, and the Potency was inconclusive [inhibitor, full curve, poor fit].
With `Fc1ccccc1-c1ccc(/C=N/Nc2nc3ccccc3[nH]2)o1` the Potency was inconclusive [inhibitor, full curve, poor fit].
`COc1cccc(CNC(=O)C2CCCN(S(=O)(=O)c3cnc[nH]3)C2)c1` (stereo not drawn) was tested, and the Potency was inconclusive [inhibitor, full curve, poor fit].
In the case of `COc1ccc(-c2noc(Cc3ccc(Cl)cc3)n2)cc1OC`, the Potency is reported as inconclusive [inhibitor, full curve, poor fit].
With `COc1ccc(S(=O)(=O)NC(CC(=O)NCc2ccc3c(c2)OCO3)c2ccco2)cc1` (stereo not drawn) the Potency was inconclusive [inhibitor, full curve, poor fit].
In the case of `C=CCn1c(SCc2ccc(Cl)cc2)nc2c1c(=O)[nH]c(=O)n2C`, the Potency is reported as inconclusive [inhibitor, full curve, poor fit].
With `CCc1nnc(NS(=O)(=O)c2ccc(NC(=O)c3ccc(Cl)cc3)cc2)s1` the Potency was inconclusive [inhibitor, full curve].
In the case of `COc1ccc(/C=C2/C(=O)N(c3ccccc3)N=C2C)c(OC)c1`, the Potency is reported as inconclusive [inhibitor, partial curve, poor fit].
For `CC(=O)c1ccc(NC(=O)CCc2c(C)nc3ncnn3c2C)cc1`, the Potency was inconclusive [inhibitor, full curve, poor fit].
For `Cc1nn(-c2ccccc2)c(C)c1C(=O)OCC(=O)c1c(N)n(CC(C)C)c(=O)n(C)c1=O`, the Potency was inconclusive [inhibitor, partial curve, poor fit].
In the case of `CC(C)(C)NC(=O)CSc1nnc(-c2ccncc2)o1`, the Potency is reported as inconclusive [inhibitor, single point].
`Nc1ccc(-n2cnc3cc([N+](=O)[O-])ccc32)cc1` was tested, and the Potency was inconclusive [inhibitor, full curve, poor fit].
With `COc1cc(C(=O)NC(C)Cc2cccs2)cc(OC)c1OC` (stereo not drawn) the “activity change, negative = inhibition” value was inactive: -9.97%.
With `CCCOc1ccc(-c2c(=O)n(OCc3ccc([N+](=O)[O-])cc3)c3ccccc3[n+]2[O-])cc1` the Potency was inconclusive [inhibitor, single point].
`CC(=O)Nc1ccc(S(=O)(=O)N(C)CC(=O)OCC(=O)NC(C)C23CC4CC(CC(C4)C2)C3)cc1` (stereo not drawn) was tested, and the Potency was inconclusive [inhibitor, full curve, poor fit].
`CCOc1ccc(C(=O)NCC(=O)NCCCSc2ccccc2)cc1OCC` was tested, and the “activity change, negative = inhibition” value was inactive: 2.57%.
`Cc1ccc(S(=O)(=O)NCCC(=O)Nc2ccncc2)cc1C` was tested, and the Potency was inconclusive [inhibitor, full curve, poor fit].
With `c1ccc(OCCCn2nnc(-c3cccnc3)n2)cc1` the Potency was inconclusive [inhibitor, full curve, poor fit].
For `Cc1cc(C(=O)OCC(=O)NCc2ccc(F)cc2)c2ccccc2n1`, the Potency was inconclusive [inhibitor, full curve, poor fit].
`CCN(CC)S(=O)(=O)c1ccc2oc(C(=O)NCc3ccc(C)cc3)c(C)c2c1` was tested, and the Potency was inconclusive [inhibitor, full curve, poor fit].
In the case of `Cc1ccc(NC(=O)CCCNC(=O)c2ccc(Cl)cc2)nc1`, the “activity change, negative = inhibition” value is reported as inactive: 2.35%.
In the case of `COc1cc(/C=C/c2nc(C#N)c(N3CCCCCC3)o2)cc(OC)c1OC`, the “activity change, negative = inhibition” value is reported as inactive: 17.5%.
In the case of `Cc1cccc(/C=C2\CCC(C3CCCC3)C2=O)c1` (stereo not drawn), the Potency is reported as inconclusive [inhibitor, full curve].
In the case of `CCc1nc(NC2CCCCC2)c(C#N)c2c1COC(C)(C)C2`, the Potency is reported as inconclusive [inhibitor, full curve, poor fit].
In the case of `CCCCNC(=S)N=Nc1c(O)[nH]c2ccccc12`, the Potency is reported as inconclusive [inhibitor, single point].
In the case of `O=S(=O)(Nc1ccccc1C(F)(F)F)c1ccc(N2CCCCS2(=O)=O)cc1`, the “activity change, negative = inhibition” value is reported as inactive: 15.5%.
`CCOC(=O)CNC(=O)Cn1cnc2c(nnn2-c2ccc(F)cc2)c1=O` was tested, and the Potency was inconclusive [inhibitor, single point].
In the case of `O=C(Nc1nc(-c2ccccc2)cs1)C1COc2ccccc2O1` (stereo not drawn), the Potency is reported as inconclusive [inhibitor, full curve, poor fit].
`O=C(Nc1cc(-c2nc3ccccc3s2)ccc1Cl)c1cc2ccccc2o1` was tested, and the “activity change, negative = inhibition” value was inactive: 10.2%.
With `CCN(CC)C(=O)CSc1nc2c(sc(=S)n2-c2ccccc2OC)c(=O)n1-c1ccccc1` the “activity change, negative = inhibition” value was inactive: 1.71%.
`COc1ccc(C2=NN(C(=O)CCC(=O)O)C(c3ccccc3F)C2)cc1` (stereo not drawn) was tested, and the Potency was inconclusive [inhibitor, single point].
In the case of `Cc1ccc(S(=O)(=O)NCC2CCC(C(=O)N3CCN(C)CC3)CC2)cc1` (stereo not drawn), the “activity change, negative = inhibition” value is reported as inactive: -4.71%.
In the case of `C=CCc1cccc2cc(C(=O)NC)c(=O)oc12`, the Potency is reported as inconclusive [inhibitor, single point].
For `COc1ccccc1CNC(=O)CN1C(=O)COc2ccc(S(=O)(=O)Nc3ccccc3)cc21`, the “activity change, negative = inhibition” value was inactive: 3.61%.
